Results are given in words; binding and its absence hold for the method and conditions named. For part of these data: Binding seen in cells or lysates may run through a third protein. For part of these data: Sequences can lack the tags named with a protein. Some results given as binding are weak or reduced against the parent protein; the word gives no strength.
T1: Pex11-Cub (S. cerevisiae) (UniProt Q12462)
T1 sequence: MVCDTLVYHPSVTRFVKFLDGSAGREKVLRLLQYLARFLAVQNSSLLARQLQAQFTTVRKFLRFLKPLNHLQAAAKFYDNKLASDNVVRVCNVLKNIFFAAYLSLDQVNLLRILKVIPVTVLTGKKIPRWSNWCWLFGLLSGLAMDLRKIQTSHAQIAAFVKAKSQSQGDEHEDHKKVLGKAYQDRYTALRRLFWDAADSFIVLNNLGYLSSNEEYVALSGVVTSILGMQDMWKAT

T2: Mdm10-Cub (S. cerevisiae) (UniProt P18409)
T2 sequence: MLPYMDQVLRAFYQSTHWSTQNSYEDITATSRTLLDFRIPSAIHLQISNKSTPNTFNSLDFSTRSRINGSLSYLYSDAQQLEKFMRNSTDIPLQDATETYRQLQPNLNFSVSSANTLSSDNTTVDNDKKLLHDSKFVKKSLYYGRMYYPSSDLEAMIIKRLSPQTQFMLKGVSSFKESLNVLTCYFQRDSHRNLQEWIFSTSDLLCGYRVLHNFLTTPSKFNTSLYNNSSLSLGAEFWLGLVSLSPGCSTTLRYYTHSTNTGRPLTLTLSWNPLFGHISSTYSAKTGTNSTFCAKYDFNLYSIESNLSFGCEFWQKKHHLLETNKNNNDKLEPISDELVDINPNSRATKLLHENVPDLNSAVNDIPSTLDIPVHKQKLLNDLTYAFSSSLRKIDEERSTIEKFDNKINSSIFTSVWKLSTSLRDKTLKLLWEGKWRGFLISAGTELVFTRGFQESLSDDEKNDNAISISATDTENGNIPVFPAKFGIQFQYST

T3: Mdm10 tagged at its C-terminus with the C-terminal part of Venus (VC) (S. cerevisiae) (UniProt P18409)
T3 sequence: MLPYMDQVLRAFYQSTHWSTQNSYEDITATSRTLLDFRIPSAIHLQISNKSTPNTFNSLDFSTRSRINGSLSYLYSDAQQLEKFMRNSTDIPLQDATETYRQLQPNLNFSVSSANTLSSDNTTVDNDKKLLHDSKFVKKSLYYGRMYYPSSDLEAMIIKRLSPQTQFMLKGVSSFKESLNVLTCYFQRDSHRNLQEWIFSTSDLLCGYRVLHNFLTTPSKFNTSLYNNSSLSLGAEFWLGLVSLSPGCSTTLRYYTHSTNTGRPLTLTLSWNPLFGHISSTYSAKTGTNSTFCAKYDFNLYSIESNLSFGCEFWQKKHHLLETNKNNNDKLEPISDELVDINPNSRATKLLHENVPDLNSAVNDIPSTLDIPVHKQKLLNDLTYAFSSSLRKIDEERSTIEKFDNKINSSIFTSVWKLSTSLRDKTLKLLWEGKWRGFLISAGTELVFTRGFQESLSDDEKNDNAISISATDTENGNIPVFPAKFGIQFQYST


Columns and labels:
[1] = target: T1, Pex11-Cub (S. cerevisiae); test: two-hybrid; split-ubiquitin membrane yeast two-hybrid (MYTH) in strain NMY51; baits with C-terminal Cub (pAMBV4), preys with N-terminal Nub (pPR3-N); growth on SD -Leu -Trp -Ade -His with 5-bromo-4-chloro-3-indolyl-β,D-galactopyranoside, 3-5 days at 30 °C; three independent experiments
[2] = target: T2, Mdm10-Cub (S. cerevisiae); test: as above
[3] = target: T1, Pex11-Cub (S. cerevisiae); test: two-hybrid; MYTH, unpublished results (U.P.); homodimerization of Pex11
[4] = target: T3, Mdm10 tagged at its C-terminus with the C-terminal part of Venus (VC) (S. cerevisiae); test: split reporter; BiFC with split Venus in S. cerevisiae BY4741; Pex11 with VN at its N-terminus, partners with VC at their C-termini, tags inserted into the genome; fluorescence microscopy

binding [1] | binding [2] | binding [3] | binding [4] | Binder
no binding | – | – | – | Nub-Mdm10 (protein, UniProt P18409 1-493) MLPYMDQVLRAFYQSTHWSTQNSYEDITATSRTLLDFRIPSAIHLQISNKSTPNTFNSLDFSTRSRINGSLSYLYSDAQQLEKFMRNSTDIPLQDATETYRQLQPNLNFSVSSANTLSSDNTTVDNDKKLLHDSKFVKKSLYYGRMYYPSSDLEAMIIKRLSPQTQFMLKGVSSFKESLNVLTCYFQRDSHRNLQEWIFSTSDLLCGYRVLHNFLTTPSKFNTSLYNNSSLSLGAEFWLGLVSLSPGCSTTLRYYTHSTNTGRPLTLTLSWNPLFGHISSTYSAKTGTNSTFCAKYDFNLYSIESNLSFGCEFWQKKHHLLETNKNNNDKLEPISDELVDINPNSRATKLLHENVPDLNSAVNDIPSTLDIPVHKQKLLNDLTYAFSSSLRKIDEERSTIEKFDNKINSSIFTSVWKLSTSLRDKTLKLLWEGKWRGFLISAGTELVFTRGFQESLSDDEKNDNAISISATDTENGNIPVFPAKFGIQFQYST
no binding | – | – | – | Nub-Mdm12 (protein, UniProt Q92328 1-271) MSFDINWSTLESDNRLNDLIRKHLNSYLQNTQLPSYVSNLRVLDFDLGKVGPAITLKEITDPLDEFYDSIREEADQETEENNDNKEDSEHICPDRTIANHEGPKDDFEAPVVMPSPNDIQFLLEVEYKGDLLVTIGADLVLNYPVEKFMTLPVKLSISDIGLHSLCIVACLSKQLFLSFLCDVSDPALDDNQTVLDPKGPILAATKPLERISIVRSMKIETEIGEQYQGQGSVLRSVGELEQFLFTIFKDFLRKELAWPSWINLDFNDGDE
binds | no binding | binds | – | Nub-Pex11 (protein, UniProt Q12462 1-236) MVCDTLVYHPSVTRFVKFLDGSAGREKVLRLLQYLARFLAVQNSSLLARQLQAQFTTVRKFLRFLKPLNHLQAAAKFYDNKLASDNVVRVCNVLKNIFFAAYLSLDQVNLLRILKVIPVTVLTGKKIPRWSNWCWLFGLLSGLAMDLRKIQTSHAQIAAFVKAKSQSQGDEHEDHKKVLGKAYQDRYTALRRLFWDAADSFIVLNNLGYLSSNEEYVALSGVVTSILGMQDMWKAT
– | – | – | no binding | Pex11 tagged at its N-terminus with the N-terminal part of Venus (VN) (protein, UniProt Q12462 1-236) MVCDTLVYHPSVTRFVKFLDGSAGREKVLRLLQYLARFLAVQNSSLLARQLQAQFTTVRKFLRFLKPLNHLQAAAKFYDNKLASDNVVRVCNVLKNIFFAAYLSLDQVNLLRILKVIPVTVLTGKKIPRWSNWCWLFGLLSGLAMDLRKIQTSHAQIAAFVKAKSQSQGDEHEDHKKVLGKAYQDRYTALRRLFWDAADSFIVLNNLGYLSSNEEYVALSGVVTSILGMQDMWKAT

Source: publication PMC4429955
